Data from a collection of fitness landscapes (doi:10.1016/j.celrep.2020.107928).
In all, about 81,000 sequences were measured (“one-hybrid fitness for binding NBS DNA”: median about -0.1, highest 2% from about 0.36 on). The list shows a part of the results.

B1: Caulobacter ParB omega fusion; a variant is named by its letters at X, in order, B8GW30 (parent)
chain: MESVVVGEPGMSEGRRGLGRGLSALLGEVDAAPAQAPGEQLGGSREAPIEILQRNPDQPRRTFREEDLEDLSNSIREKGVLQPILVRPSPDTAGEYQIVAGERAWRAAQRAGLKTVPIMVRELDDLAVLEIGIIENVQRADLNVLEEALSYKVLMEKFERTQENIAQTIGKSXSHVANXMRLLXLPDEVQSYLVSGELTAXHARAIAAAADPVALAKQIIEGGLSVRETEALARKAPNLSAGKSKGGRPPRVKDTDTQALESDLSSVLGLDVSIDHRGSTGTLTITYATLEQLDDLCNRLTRGI

Variants of: B1
Experiment: one-hybrid fitness for binding NBS DNA (the Noc-binding site; scaled: cognate 1, non-cognate 0); higher = stronger binding
Conditions: with NBS DNA site
Procedure, shortened: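 Values were rescaled so that cognate is 1 and non-cognate is 0. Each is a fitness, the log change in a variant's read ratio to wild type from Illumina reads of plasmids before and after selection, with three replicate libraries pooled and variants under 10 reads dropped. Selection of the Caulobacter ParB libraries, four specificity codons randomised, used E. coli USO with a HIS3 reporter, site 19 bp from the promoter, on M9-minus-histidine with 0.1 mM IPTG and 5 mM 3-AT for 48 hours at 37°C.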

Variant | one-hybrid fitness for binding NBS DNA
QSLM | ≤ 0.2
KLQL | ≤ 0.2
ESYV | ≤ 0.2
VPVM | ≤ 0.2
QGSC | ≤ 0.2
GVYT | ≤ 0.2
ALMN | ≤ 0.2
QNSV | ≤ 0.2
VSFA | ≤ 0.2
RHGD | ≤ 0.2
RAQN | ≤ 0.2
NVSG | ≤ 0.2
LVSW | ≤ 0.2
ANDP | ≤ 0.2
ANNK | ≤ 0.2
ASSR | ≤ 0.2
GPLN | ≤ 0.2
KMGG | ≤ 0.2
NQHH | ≤ 0.2
RHFY | ≤ 0.2
GPRT | 0.369
RCLW | ≤ 0.2
YDYS | ≤ 0.2
NSYW | ≤ 0.2

Variant | one-hybrid fitness for binding NBS DNA
IDYG | ≤ 0.2
SGKL | ≤ 0.2
DPEY | ≤ 0.2
VNHC | ≤ 0.2
AERH | ≤ 0.2
HPYE | ≤ 0.2
LLIC | ≤ 0.2
YVSL | ≤ 0.2
AHNI | ≤ 0.2
THAP | ≤ 0.2
YNPM | ≤ 0.2
LDCA | ≤ 0.2
HCST | ≤ 0.2
QSRS | 0.64
SGHY | ≤ 0.2
THAG | ≤ 0.2
WCNF | ≤ 0.2
VMKT | ≤ 0.2
SLQW | ≤ 0.2
AHGG | ≤ 0.2
NANG | ≤ 0.2
YESW | ≤ 0.2
SGEM | ≤ 0.2
CCMC | ≤ 0.2

Variant | one-hybrid fitness for binding NBS DNA
QHPS | ≤ 0.2
PGAI | ≤ 0.2
RRRS | 0.74
PNKE | ≤ 0.2
SQAR | ≤ 0.2
QRFS | 0.597
CERT | ≤ 0.2
LYRF | ≤ 0.2
KVPK | ≤ 0.2
PRGY | ≤ 0.2
SCPW | ≤ 0.2
RWKC | ≤ 0.2
WRWI | ≤ 0.2
HYTH | ≤ 0.2
FKGG | ≤ 0.2
RWGF | ≤ 0.2
NFSV | ≤ 0.2
IFNM | ≤ 0.2
SCSV | ≤ 0.2
RTER | 0.262
QQES | 0.23
TYRG | ≤ 0.2
GMLC | ≤ 0.2
AAIH | ≤ 0.2

Variant | one-hybrid fitness for binding NBS DNA
PLFI | ≤ 0.2
ALSS | ≤ 0.2
ARKA | ≤ 0.2
PPQR | ≤ 0.2
VSRR | ≤ 0.2
RDHD | ≤ 0.2
DDLC | ≤ 0.2
HPGN | ≤ 0.2
GCAM | ≤ 0.2
TRFS | ≤ 0.2
WINA | ≤ 0.2
QDII | ≤ 0.2
RCQF | ≤ 0.2
LPEK | ≤ 0.2
ALLD | ≤ 0.2
PAVE | ≤ 0.2
DPLV | ≤ 0.2
LCLC | ≤ 0.2
LLIS | ≤ 0.2
HVLE | ≤ 0.2
PSIT | ≤ 0.2
TDSM | ≤ 0.2
RYYG | ≤ 0.2
MYAG | ≤ 0.2

Variant | one-hybrid fitness for binding NBS DNA
RVPM | ≤ 0.2
QHTP | ≤ 0.2
GMYG | ≤ 0.2
AVGS | ≤ 0.2
RQFT | 0.204
PKTN | ≤ 0.2
VEAN | ≤ 0.2
RTEW | ≤ 0.2
MIKC | ≤ 0.2
TFQN | ≤ 0.2
YRKI | ≤ 0.2
RGGH | ≤ 0.2
GNTS | ≤ 0.2
KWHT | ≤ 0.2
GGRC | ≤ 0.2
WWKS | ≤ 0.2
DYHV | ≤ 0.2
GTSW | ≤ 0.2
IYHY | ≤ 0.2
FRQS | ≤ 0.2
LHGD | ≤ 0.2
RYVH | ≤ 0.2
FALG | ≤ 0.2
QLWY | ≤ 0.2

Variant | one-hybrid fitness for binding NBS DNA
TYAR | ≤ 0.2
AGYK | ≤ 0.2
KEKL | ≤ 0.2
GYSY | ≤ 0.2
QGED | ≤ 0.2
GRDV | ≤ 0.2
YRPY | ≤ 0.2
SSFL | ≤ 0.2
KIAW | ≤ 0.2
TIRA | ≤ 0.2
VPPD | ≤ 0.2
RNQS | 0.281
VWAG | ≤ 0.2
RWDT | ≤ 0.2
PGRF | ≤ 0.2
EAYG | ≤ 0.2
RYWI | ≤ 0.2
KHRT | 0.266
QYES | ≤ 0.2
NQMG | ≤ 0.2
RVCP | ≤ 0.2
YQMY | ≤ 0.2
APQI | ≤ 0.2
PQHS | ≤ 0.2

Variant | one-hybrid fitness for binding NBS DNA
PWPA | ≤ 0.2
YLST | ≤ 0.2
FCQR | ≤ 0.2
KLMV | ≤ 0.2
MRML | ≤ 0.2
RGKA | ≤ 0.2
MIRR | ≤ 0.2
GTQP | ≤ 0.2
HKKH | ≤ 0.2
NQRV | ≤ 0.2
SQHF | ≤ 0.2
VVTC | ≤ 0.2
AYVM | ≤ 0.2
PVAH | ≤ 0.2
CKAL | ≤ 0.2
CCVR | ≤ 0.2
SLPW | ≤ 0.2
NHLI | ≤ 0.2
LVAS | ≤ 0.2
THFT | ≤ 0.2
APLT | ≤ 0.2
RDRN | ≤ 0.2
IYNR | ≤ 0.2
VPMN | ≤ 0.2

Variant | one-hybrid fitness for binding NBS DNA
SARL | ≤ 0.2
NMHG | ≤ 0.2
HRYM | ≤ 0.2
WQAG | ≤ 0.2
RCKP | ≤ 0.2
KDTY | ≤ 0.2
TPGS | ≤ 0.2
YLFC | ≤ 0.2
MLTM | ≤ 0.2
LWKC | ≤ 0.2
TYDK | ≤ 0.2
QGPE | ≤ 0.2
MNAG | ≤ 0.2
MDDG | ≤ 0.2
WGQT | ≤ 0.2
PSYS | ≤ 0.2
RPHV | ≤ 0.2
SALL | ≤ 0.2
WVYD | ≤ 0.2
ARIY | ≤ 0.2
RNIA | ≤ 0.2
TSDT | ≤ 0.2
SMSS | ≤ 0.2
RYYE | ≤ 0.2

Variant | one-hybrid fitness for binding NBS DNA
MYSS | ≤ 0.2
WPYA | ≤ 0.2
PSKD | ≤ 0.2
RARQ | ≤ 0.2
ADQE | ≤ 0.2
WLVY | ≤ 0.2
GGQH | ≤ 0.2
HWGT | ≤ 0.2
ESYG | ≤ 0.2
RCFS | 0.411
YNMN | ≤ 0.2
ESND | ≤ 0.2
SFTT | ≤ 0.2
IKPT | ≤ 0.2
ASMG | ≤ 0.2
TMLC | ≤ 0.2
RNDP | ≤ 0.2
NENT | ≤ 0.2
VSCL | ≤ 0.2
FFIR | ≤ 0.2
QVNE | ≤ 0.2
DVKC | ≤ 0.2
DLSH | ≤ 0.2
QSYR | 0.458

Variant | one-hybrid fitness for binding NBS DNA
NAPR | ≤ 0.2
NPCS | ≤ 0.2
EAAT | ≤ 0.2
RGYD | ≤ 0.2
CRTH | ≤ 0.2
RGWE | ≤ 0.2
KLEV | ≤ 0.2
WTFG | ≤ 0.2
TEKS | ≤ 0.2
WTTW | ≤ 0.2
RRSR | 0.756
EPSE | ≤ 0.2
GVTC | ≤ 0.2
LQNV | ≤ 0.2
YEPR | ≤ 0.2
NPGV | ≤ 0.2
AWDM | ≤ 0.2
ANNR | ≤ 0.2
QSPT | 0.276
PDKV | ≤ 0.2
DKTS | ≤ 0.2
FMKG | ≤ 0.2
LSRK | ≤ 0.2
TKDG | ≤ 0.2

Variant | one-hybrid fitness for binding NBS DNA
GQRF | ≤ 0.2
PVSW | ≤ 0.2
KAAP | ≤ 0.2
LPIW | ≤ 0.2
EHFC | ≤ 0.2
HFAR | ≤ 0.2
PLFL | ≤ 0.2
HFCA | ≤ 0.2
LRCS | ≤ 0.2
CWTM | ≤ 0.2
ECNS | ≤ 0.2
WRRL | ≤ 0.2
RFWK | ≤ 0.2
YELK | ≤ 0.2
SWMT | ≤ 0.2
VAVT | ≤ 0.2
EPRV | ≤ 0.2
IKNF | ≤ 0.2
SGCW | ≤ 0.2
PNVS | ≤ 0.2
HWHY | ≤ 0.2
TYCR | ≤ 0.2
QAVK | ≤ 0.2
HRRA | ≤ 0.2

Variant | one-hybrid fitness for binding NBS DNA
FCHC | ≤ 0.2
IKNK | ≤ 0.2
CAWK | ≤ 0.2
MKRG | ≤ 0.2
HAPY | ≤ 0.2
TLDQ | ≤ 0.2
YMRR | ≤ 0.2
NDEK | ≤ 0.2
NHPF | ≤ 0.2
PTEW | ≤ 0.2
PKES | ≤ 0.2
PLMD | ≤ 0.2
SHSR | ≤ 0.2
QYYM | ≤ 0.2
TDTY | ≤ 0.2
RNPM | ≤ 0.2
YFQS | ≤ 0.2
NSRW | ≤ 0.2
LKMN | ≤ 0.2
WQSS | ≤ 0.2
GLCD | ≤ 0.2
KKDR | ≤ 0.2
GNML | ≤ 0.2
TCRQ | ≤ 0.2

Variant | one-hybrid fitness for binding NBS DNA
GSDC | ≤ 0.2
CMHC | ≤ 0.2
RMWF | ≤ 0.2
RIKS | 0.499
HCTG | ≤ 0.2
RIGL | ≤ 0.2
LGLC | ≤ 0.2
ETPE | ≤ 0.2
EWPL | ≤ 0.2
GTSC | ≤ 0.2
SQAA | ≤ 0.2
EWGG | ≤ 0.2
KKPS | ≤ 0.2
SCPF | ≤ 0.2
APQA | ≤ 0.2
VHNL | ≤ 0.2
CHMS | ≤ 0.2
RYKA | 0.354
